Measured values reported in the supplement of paper PMC12217912.
This is one part of the list. The full chains were built here from the parent and the listed change. Values near 0.05 are background.

B1: TEV protease; numbered along this chain (parent)
chain: MGESLFKGPRDYNPISSSICHLTNESDGHTTSLYGIGFGPFIITNKHLFRRNNGTLVVQSLHGVFKVKDTTTLQQHLVDGRDMIIIRMPKDFPPFPQKLKFREPQREERICLVTTNFQTKSMSSMVSDTSCTFPSGDGIFWKHWIQTKDGQCGSPLVSTRDGFIVGIHSASNFTNTNNYFTSVPKNFMELLTNQEAQQWVSGWRLNADSVLWGGHKVFMVKPEEPFQPVKEATQL

Variants of: B1
Assay: raw area under fraction-flipped curve 0-4 h after induction (AUC4h, not background-subtracted), DNA-recorder readout of cleavage of the substrate (dimensionless); higher = more cleavage of the substrate by the protease variant
Details: temperature: 34 °C; time window: 0-4 h after rhamnose induction
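Also: Bxb1 expression induced with 0.2% (w/v) L-rhamnose at OD600 near 0.5, cultures sampled hourly, flipped fraction per protease–substrate barcode pair counted by paired-end Illumina sequencing.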

Variant	area with substrate ENLYDQS	area with substrate ENLYEQS	area with substrate ENLYGQS	area with substrate ENLYMQS	area with substrate ENLYNQS	area with substrate ENLYQQS	area with substrate ENLYYQS	area with substrate ENLYKQS	area with substrate ENLYVQS	area with substrate ENLYWQS
F95N	0.0297	0.043	0.0727	0.0324	0.0438	0.0582	0.0618			
L190F	0.0629			0.0816				0.0406	0.0901	0.0985
N116W	0.0815	0.0775	0.0661		0.0701			0.06		
Q74I	0.0676	0.057	0.0557							0.0746
W141N	0.0386				0.0598			0.0449		
Q75M	0.0643	0.0702	0.0675		0.0432		0.0622	0.0621	0.118	
R109T	0.0703	0.0697	0.0675	0.0767	0.0723					0.0743
E195L	0.0695		0.0473		0.0767		0.0556		0.0616	0.0579
E195S	0.0543		0.058	0.0835	0.0747	0.0564	0.0752		0.133	0.0933
S169Y	0.0865	0.0388								
D149I	0.0617	0.075			0.0549	0.0585	0.0588	0.0542		
P155G	0.0543	0.0442	0.0474	0.0546					0.03	0.0408
L99E	0.0754			0.0707	0.05	0.0544		0.0502		
L99M	0.0726		0.0616	0.0856	0.0737			0.0719		
L99V	0.0633	0.0596	0.069	0.0856	0.0606	0.0597	0.0642	0.0434	0.111	
L99I	0.0613		0.0269		0.0676	0.0626		0.0215	0.11	0.0757
L99H	0.0595					0.0599			0.0985	
F163A	0.0792						0.0667			
N175A	0.0657	0.0678	0.0575	0.0751	0.0654			0.0694	0.0678	0.0752
N175Q	0.0628	0.0508	0.0522		0.0613					0.0286
N175S	0.0721				0.0584			0.0713		

Variant	area with substrate ENLYDQS	area with substrate ENLYEQS	area with substrate ENLYGQS	area with substrate ENLYMQS	area with substrate ENLYNQS	area with substrate ENLYQQS	area with substrate ENLYYQS	area with substrate ENLYKQS	area with substrate ENLYVQS	area with substrate ENLYWQS
G162N	0.0706			0.0868				0.0756		
N178Y	0.0661			0.163	0.0905		0.0811		0.214	0.113
T159K	0.0603	0.0667	0.0631					0.059		0.0955
S158L	0.0417	0.048		0.0511				0.0511		
D82V	0.0645	0.047	0.0613	0.0586	0.051					0.0473
N193Q	0.0513				0.0631			0.0521		
E108G	0.0574			0.0725		0.0523				0.0667
F101E	0.0604	0.0495		0.0379	0.0542	0.039				
F101S	0.0436	0.044		0.0454	0.0433	0.0473		0.0574	0.0499	
M83E	0.0407	0.0516	0.0407	0.0503	0.0557	0.0704			0.0557	
Q97W	0.0447									
V165I	0.0694	0.0826	0.0708				0.0574	0.0772		
V165L	0.0276	0.0652			0.0702					
A170E	0.075		0.0587	0.0657	0.0725	0.0613	0.07		0.058	
A170W	0.0662	0.0584	0.0303	0.064			0.0599			
M88L	0.0584	0.0695		0.0908				0.0493		0.105
T70F	0.074	0.0561		0.0364	0.0614			0.0514	0.0312	
T119C	0.0704				0.0587					
T119A	0.0615	0.0706	0.0595		0.0726	0.0643	0.08	0.0634	0.123	0.0799
N177T	0.0665		0.0657		0.074			0.0634	0.121	0.107

Same assay, conditions: temperature: 34 °C; time window: 0-4 h after rhamnose induction

Variant	area with substrate ENLYIQS	area with substrate ENLYPQS	area with substrate ENLYRQS	area with substrate ENLYSQS	area with substrate ENLYHQS	area with substrate ENLYTQS	area with substrate ENLYLQS
N116W	0.116	0.0648	0.0768	0.0577			
Q74I	0.0785	0.064		0.0496			
W141N		0.0529					
Q75M	0.129			0.0237			
R109T	0.123	0.0798	0.044		0.0604	0.0967	
E195L			0.0729	0.0816	0.0683	0.0742	
E195S		0.0418			0.0548		
S169Y			0.0582		0.0613		
D149I			0.0537		0.0507		
P155G		0.0641	0.0363		0.0584	0.0462	
L99E	0.0974	0.0621			0.043		
L99M		0.0851			0.0737		
L99V				0.0551	0.0863	0.0794	
L99I	0.0883		0.0508	0.0795	0.0654		
F163A				0.0651			
N175A		0.0458	0.0565		0.0593		0.0759
N175Q	0.114	0.0566	0.0423		0.061	0.0823	
N175S	0.0941		0.0531	0.0939			
G162N		0.0733	0.0444				

Variant	area with substrate ENLYIQS	area with substrate ENLYPQS	area with substrate ENLYRQS	area with substrate ENLYSQS	area with substrate ENLYHQS	area with substrate ENLYTQS	area with substrate ENLYLQS
N178Y			0.0749	0.051	0.0699	0.0916	0.168
T159K	0.111	0.0785	0.0564	0.06	0.0735		
S158L			0.0557		0.0535		0.058
D82V					0.0208	0.0519	
N193Q					0.0659		
E108G	0.0932				0.0508	0.0655	
F101E	0.0579				0.0509		
F101S	0.0475	0.0663			0.0645		
M83E	0.0474	0.067	0.0576		0.0605		
Q97W		0.0525	0.0669		0.0779		
V165I	0.111	0.0642		0.0708			
V165L				0.0898			
A170E					0.0608		
A170W	0.0648	0.0587	0.0582		0.0719	0.0572	0.0549
M88L	0.106	0.0767		0.0715			
T70F		0.0662	0.0648			0.0594	
T119C	0.124					0.105	
T119A	0.099	0.0793	0.0899				0.0945
N177T	0.151	0.0823	0.0733	0.111	0.0833	0.0943	
